Data: PubChem BioAssay AID2546 (National Center for Advancing Translational Sciences (NCATS), 2010)
Hit rate of the full screen: of about 310,000 compounds, about 11,000 (3.5%) were called active. Inconclusive results, whose numbers are uncertain, are shown with a selection of clear calls. The call rests on the fitted dose curve; in most records, active means well fitted inhibition curve with a large enough effect; inconclusive means small, poorly fitted or top-dose-only effect, or effect the other way; inactive means flat fitted curve, though single readings scatter. No potency is given beside an inconclusive call; the fits are too rough.

experiment: VP16 counterscreen qHTS for inhibitors of ROR gamma transcriptional activity; conditions: Drosophila S2 Gal4-VP16 UAS-luciferase, luminescence, 20 h; activity, negative = inhibition: at 53.6 µM (top of the series);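 further: Gal4-VP16 expression switched on by copper sulfate through the metallothionein promoter; nearly all actives have a fitted effect of over 50% in size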
Text: NIH Molecular Libraries Probe Production Network [MLPCN]
NIH Chemical Genomics Center [NCGC]
Assay Provider: Dan Littman, New York University
The retinoic acid-related orphan receptor (ROR) gamma is a transcription factor that has a central role in the differentiation of Th17 cells, a subset of T helper cells that secrete the inflammatory cytokines IL-17, IL-17F, and IL-22. Th17 cells have been implicated in graft versus host disease, autoimmune disease and asthma. ROR gamma is induced in naive T helper cells in the presence of TGF-beta combined with IL-6, IL-21, or IL-23, and thereafter directs the expression of the Th17 lineage cytokines. To identify nonspecific inhibitors, a Drosophila Schneider cell line was stably transfected with two vectors: a gene expressing a fusion of the Gal4 DNA binding domain and VP16 transactivation domain under the control of the metallothionine promoter and a Photinus luciferase reporter regulated by the Gal4 binding site enhancer, UAS. […] Small molecule inhibitors that inhibit components common to the RORgt and VP16 assays, such as the Gal4 DNA binding domain or the UAS luciferase reporter, will be active in both assays and thus scored as nonspecific.
For screening, 600 cells in 4 uL/well were dispensed into white solid 1536-well plates (Grenier) using a solenoid-based dispenser. Following transfer of 23 nL compound or DMSO vehicle by a pin tool, the plates were incubated 1 hr at ambient temperature, and 1 uL/well copper sulfate (700 uM final concentration) was added. The plates were centrifuged 15 s at 1000 RPM and incubated 20 hr at ambient temperature. After addition of 1.5 uL Photinus luciferase detection reagent, the plates were incubated 10 min at ambient temperature and then read by a ViewLux (Perkin Elmer) to detect luminescence.
On the % scale 0 is the no-effect control and ±100 the full control effect; potency means the concentration at half of the fitted maximal effect; tags describe the fitted curve by direction and shape.

| SMILES | Potency | activity, negative = inhibition |
| --- | --- | --- |
| O=c1c2cc(Cl)ccc2nc(-c2ccc([N+](=O)[O-])cc2)n1O | inconclusive [inhibitor, single point] | – |
| CN1CCN(S(=O)(=O)c2cccc(C(=O)Nc3ccccc3N3CCCC3)c2)CC1 | – | inactive: 8.7% |
| Cc1nc2c(-c3ccccc3)c(C)[nH]n2c(=O)c1Cl | inconclusive [inhibitor, single point] | – |
| COc1ccc(CN2C(=S)NC(C)(C)CC2(C)O)cc1 (stereo unspecified) | inconclusive [inhibitor, single point] | – |
| CCOc1cc(/C=N/NC(=O)c2ccc(CN3CCOCC3)cc2)ccc1OC | – | inactive: 0.0636% |
| O=C(Nc1nnc(-c2ccc(Cl)cc2)o1)c1nc2ccccc2s1 | active: 4.47 µM | – |
| C/C(=N\Nc1nncc2ccccc12)c1ccc(OCC(=O)N(C)C)cc1 | – | inactive: -14.1% |
| S=C(Nc1cccc(Cl)c1)Nc1ccc2c(c1)OCCO2 | inconclusive [inhibitor, single point] | – |
| O=C(Nc1ccc(N2CCN(C(=O)c3ccccc3)CC2)cc1)c1cc2ccccc2o1 | – | inactive: -20.8% |
| Fc1ccc(NC(=S)NN2CCOCC2)cc1Cl | inconclusive [inhibitor, single point] | – |
| CN1CCCC1CCNc1ccc2c(=O)c3ccccc3oc2c1 (stereo unspecified) | inconclusive [inhibitor, partial curve] | – |
| Cc1ccc(NC2OC(CO)C(O)C2O)cc1[N+](=O)[O-] (stereo unspecified) | inconclusive [activator, single point] | – |
| COc1ccc(OC)c(NC(=O)c2cccc(S(=O)(=O)N(Cc3ccccc3)c3ccccc3OC)c2)c1 | – | inactive: -4.34% |
| CCC(=O)Nc1nnc(SCC(=O)NCCc2ccc(OC)c(OC)c2)s1 | – | inactive: -3.84% |
| COC(=O)c1c(C)[nH]c(C(=O)/C=C/c2ccc(Cl)cc2)c1C | inconclusive [inhibitor, single point] | – |
| CCOC(=O)NC(=S)Nc1cccc(NC(=S)NC(=O)OCC)c1 | inconclusive [inhibitor, single point] | – |
| O=C(c1ccc(Cl)cc1)C1CCN(C(=O)c2ccc(F)cc2)CC1 | inconclusive [inhibitor, single point] | – |
| COc1ccc(NC(=O)C(=O)N/N=C/c2cccnc2)cc1 | – | inactive: -10.5% |
| Nc1nc2ccccc2n1/N=C/c1ccc([N+](=O)[O-])s1 | inconclusive [inhibitor, partial curve] | – |
| O=S(=O)(c1ccc(Br)cc1)n1ccc2ccccc21 | inconclusive [inhibitor, single point] | – |
| COCCCNC(=O)c1ccc(Cn2c(=O)c3ccccc3n(Cc3ccc(C)cc3)c2=O)cc1 | inconclusive [inhibitor, single point] | – |
